Source: PubChem BioAssay AID504339 (National Center for Advancing Translational Sciences (NCATS), 2011)
The campaign covered roughly 390,000 compounds. About 17,000 (4.4%) were called active. This list was built around the results that the source calls inconclusive (neither active nor inactive); the mix of calls is not that of the screen. Calls follow the shape of the dose curve; as a rule, active = well fitted inhibition curve with a large enough effect; inconclusive = small, poorly fitted or top-dose-only effect; inactive = no such curve, though single readings can be large or run the other way. Potencies of inconclusive entries are doubtful fits and often do not repeat.

Target: Lysine-specific demethylase 4A (Homo sapiens) (UniProt O75164)
Chain of UniProt O75164 (O75164 whole entry, looked up, the tested form may be a part): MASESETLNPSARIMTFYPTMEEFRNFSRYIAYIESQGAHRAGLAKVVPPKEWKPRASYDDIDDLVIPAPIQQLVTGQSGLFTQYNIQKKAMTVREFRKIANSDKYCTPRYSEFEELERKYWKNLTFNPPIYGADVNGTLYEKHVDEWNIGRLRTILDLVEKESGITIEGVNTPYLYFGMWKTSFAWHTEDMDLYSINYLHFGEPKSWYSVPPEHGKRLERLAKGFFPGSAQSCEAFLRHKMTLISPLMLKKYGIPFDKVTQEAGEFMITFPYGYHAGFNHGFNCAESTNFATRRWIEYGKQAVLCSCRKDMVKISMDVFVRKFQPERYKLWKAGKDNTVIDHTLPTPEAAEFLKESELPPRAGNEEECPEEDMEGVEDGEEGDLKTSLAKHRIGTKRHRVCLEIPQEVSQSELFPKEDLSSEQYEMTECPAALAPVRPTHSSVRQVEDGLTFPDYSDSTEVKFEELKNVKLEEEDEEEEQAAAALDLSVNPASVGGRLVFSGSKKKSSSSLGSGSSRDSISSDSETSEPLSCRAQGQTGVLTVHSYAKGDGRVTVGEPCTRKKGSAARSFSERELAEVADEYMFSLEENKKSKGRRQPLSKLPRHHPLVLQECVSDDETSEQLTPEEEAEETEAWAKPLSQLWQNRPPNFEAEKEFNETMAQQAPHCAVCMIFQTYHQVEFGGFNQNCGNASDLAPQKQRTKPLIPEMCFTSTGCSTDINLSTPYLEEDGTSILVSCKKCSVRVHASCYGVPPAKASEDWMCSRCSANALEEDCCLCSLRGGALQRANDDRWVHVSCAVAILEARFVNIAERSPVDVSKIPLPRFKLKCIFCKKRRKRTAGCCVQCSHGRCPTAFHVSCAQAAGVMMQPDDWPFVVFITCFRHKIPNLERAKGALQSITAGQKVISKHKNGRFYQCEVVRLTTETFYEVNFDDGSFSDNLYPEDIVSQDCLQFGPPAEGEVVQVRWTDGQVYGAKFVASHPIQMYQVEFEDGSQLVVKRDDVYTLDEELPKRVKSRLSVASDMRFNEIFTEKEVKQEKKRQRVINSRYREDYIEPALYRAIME
Test: qHTS Assay for Inhibitors of JMJD2A-Tudor Domain; also: nearly all actives have a fitted effect of over 50% in size
Details: AlphaScreen JMJD2A-Tudor / H3K4me3 peptide binding; series mostly up to 114 µM
Potency is read from the fitted curve at half-maximal effect; tags tell the direction and shape of the fitted curve.

SMILES | Potency
Oc1ccccc1/C=N/Nc1nccnc1Cl | inconclusive: 50.1 µM [inhibitor, partial curve]
COc1cc(CN2CCN(Cc3ccccc3C(F)(F)F)CC2)cc(OC)c1OC | active: 0.794 µM
COc1ccc(C)cc1S(=O)(=O)N1CCCC(C(=O)NC2CC2)C1 (configuration not stated) | inactive
COc1cc2ncnc(NCc3ccccc3F)c2cc1OC | inactive
COc1ccc(/C=C2\SC(=O)N(CCNC(=O)CCS(=O)(=O)c3ccc(C)cc3)C2=O)cc1 | inconclusive: 20 µM [inhibitor, partial curve]
COc1ccc(CNC(=O)CC2C[C@H](C(=O)N3CCOCC3)[C@@]3(CCC4CCCC4)c4[nH]c5ccccc5c4CCN3C2=O)cc1OC (some centres not stated) | inconclusive: 63.1 µM [inhibitor, partial curve, poor fit]
COc1ccc(C)cc1-n1c(N)c(C#N)c(C#N)c1-c1ccc(OC)c(OC)c1OC | inconclusive: 56.2 µM [inhibitor, partial curve]
C=CCNC(=S)/N=c1\sccn1C | inconclusive: 39.8 µM [inhibitor, single point]
COC(=O)c1ccc(CCc2cc(O)ccc2O)cc1 | active: 6.31 µM
Cc1ccccc1CS(=O)(=O)CCC(=O)NCc1ccc(F)cc1Cl | inactive
COC(=O)c1cnc(N2CCN(c3ccc(OC)cc3)CC2)c2ccccc12 | active: 25.1 µM
Cc1ccc(OCCOCCNC(C)(C)C)c([N+](=O)[O-])c1 | active: 8.91 µM
Cc1ccccc1NS(=O)(=O)c1ccc2[nH]cc(C(=O)NCCc3ccccc3)c(=O)c2c1 | inactive
COc1ccc(NC(=S)N/N=C/c2cccn2Cc2ccc(F)cc2)cc1 | inconclusive: 17.8 µM [inhibitor, full curve, poor fit]
CCOC(=O)Nc1cccc(Nc2ccccc2)c1 | inconclusive: 100 µM [inhibitor, partial curve, poor fit]
CCCSC1=N/C(=C\c2ccc([N+](=O)[O-])o2)C(=O)S1 | active: 11.2 µM
Oc1ccc2ccccc2c1C=Nc1ccccc1Br | inconclusive: 20 µM [inhibitor, single point]
CC(=O)N1CCN(c2nnnn2-c2ccccc2)CC1 | inactive
O=C(CCn1c(=O)oc2ccccc21)N1CCCCCC1 | inactive
Cc1ccccc1OCC(=O)Nc1c(C(=O)Nc2ccccc2F)oc2ccccc12 | inactive
CN(C)CCCNC(=O)/C(=C\c1ccc(-c2ccc(Br)cc2)o1)NC(=O)c1ccccc1 | inconclusive: 39.8 µM [inhibitor, partial curve]
CN(C)C(CNC(=O)c1ccc(S(=O)(=O)Nc2cccc(C(F)(F)F)c2)cc1)c1ccco1 (configuration not stated) | inconclusive: 56.2 µM [inhibitor, partial curve]
COc1ccccc1NC(=O)C1=C(C)NC(SCC(=O)Nc2ccc(C(=O)O)cc2)=C(C#N)C1c1cccs1 (configuration not stated) | inactive
NC(=O)[C@H](Cc1cc2ccccc2s1)NC(=O)[C@@H]1CC2(CC(c3cccc(NC(=O)[C@@H]4CCC(=O)N4)c3)=NO2)CN1C(=O)/C=C/c1c(F)cccc1Cl (some centres not stated) | inconclusive: 39.8 µM [inhibitor, partial curve]

SMILES | Potency
O=C(Nc1ccc(NC(=O)c2sc3ccccc3c2Cl)cc1)c1ccco1 | inconclusive: 70.8 µM [inhibitor, single point]
COc1ccc(-c2c(C)nn3c(C(F)(F)F)cc(-c4ccc(C)cc4)nc23)cc1 | inactive
Cc1cc(F)ccc1NC(=O)c1cc(S(=O)(=O)N2CCOCC2)cn1C | inactive
O=C(NC(=S)Nc1ccccc1)c1ccc(-c2ccccc2)cc1 | inactive
COCCN(C(=O)CSc1nnc(C)n1Cc1ccccc1)c1c(N)n(Cc2ccccc2)c(=O)[nH]c1=O | inconclusive: 39.8 µM [inhibitor, full curve]
COc1ccc2nc3cc(Cl)ccc3c(Nc3ccc(O)c(CN4CCN(C)CC4)c3)c2c1 | active: 31.6 µM
CNC[C@@H](Cc1ccccc1)NC[C@@H](CC1CCCCC1)NCCCc1ccccc1 | inconclusive: 39.8 µM [inhibitor, full curve, poor fit]
COc1ccc(-n2cc(-c3ccccc3)c3c(=O)[nH]cnc32)cc1 | inconclusive: 56.2 µM [inhibitor, partial curve]
O=C1NC(c2ccccc2)=C(c2nc3ccccc3s2)C(c2ccccc2)N1 (configuration not stated) | inconclusive: 25.1 µM [inhibitor, full curve]
NC(=S)NNc1ccnc2cc(Cl)ccc12 | active: 44.7 µM
CC(=O)c1cccc(NS(=O)(=O)c2ccc3[nH]c4c(c3c2)CCCCC4)c1 | inconclusive: 39.8 µM [inhibitor, partial curve]
N#Cc1ccc(C(=O)Nc2nnc(-c3ccccn3)o2)cc1 | inconclusive: 70.8 µM [inhibitor, single point]
CC(Sc1ccsc1[N+](=O)[O-])C(=O)N1CCN(c2ccccn2)CC1 (configuration not stated) | inconclusive: 50.1 µM [inhibitor, partial curve]
CCc1ccc(Nc2nc(C)cc(C)n2)cc1 | inconclusive: 22.4 µM [inhibitor, partial curve]
O=C(Nc1ccnc(-c2cccnc2)n1)c1cccc(Cl)c1Cl | inactive
COc1ccc(-n2c(COc3cccc4cccnc34)nnc2SCC(=O)O)cc1 | inactive
COc1ccc(N2Cc3ccccc3C2=NC(=O)c2cncc(Br)c2)cc1 | inconclusive: 89.1 µM [inhibitor, partial curve]
Cc1cc(CSc2ccc(Cl)cc2)ccc1N | inconclusive: 22.4 µM [inhibitor, full curve]
CCn1c(C)c(C)c2cc(C(=O)N3CCN(c4ccccc4)CC3)ccc21 | active: 44.7 µM
COc1ccccc1Nc1cc2ccccc2c(=O)[nH]1 | active: 79.4 µM
CN(CC(=O)Nc1ccc(N2CCOCC2)cc1)CC(=O)Nc1ccc(C(F)(F)F)cc1 | inconclusive: 20 µM [inhibitor, full curve]
Cc1occc1C(=O)Nc1ccccc1NC(=O)c1ccoc1C | active: 89.1 µM
COc1ccc(NC(=O)c2cc(-c3ccc(F)cc3)no2)cc1OC | inconclusive: 56.2 µM [inhibitor, partial curve]
